Results on 50 molecules are retold here after article PMC12040169 (PLOS Biology, 2025).

Some of the results follow.

For this assay, the system named is T1, C. trachomatis L2/434/Bu expressing GFP (CTL2-GFP).
T1 construct: L2/434/Bu GFP intracellular growth in HeLa cells
More on the design: species or system HeLa; C. trachomatis total inclusion area by high-content imaging, normalised to DMSO. Particulars: total inclusion area; 28.5 h, 10 µM; inhibitor. In outline: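 Post-fluorescence-read fixation, DNA staining with Hoechst and high-content imaging; GFP inclusion area and number per well, and nuclei counts, used as proxies for bacterial growth and host viability.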
For `NC(=O)C1CCN(CC(=O)Nc2ccc([N+](=O)[O-])cc2C(=O)c2ccccc2)CC1` [CBK265782], the “% of control remaining” value stood at 118.968.

For the molecule `COc1ccc(C2CCN(C(=O)C3CCCO3)CC2)cc1` (centres unmarked) [CBK285473], the “% of control remaining” value came out at 83.6011.

With `Cc1ccc2cc(S(=O)(=O)Nc3cccc(C(=O)O)c3)ccc2c1` [CBK299812], the “% of control remaining” value is given as 81.8648.

Turning to `Cc1nc(COc2ccc(Cl)cc2)sc1C(=O)N1CCC1` [CBK306353], the “% of control remaining” value is reported as 27.2402.

For `COC(=O)CCc1ccc(S(=O)(=O)N2CCCN(Cc3cc(Cl)cc(Cl)c3)CC2)cc1` [CBK062982], the “% of control remaining” value was found to be 70.7123.

Take `CC1CCc2c(sc(NC(=O)c3cccs3)c2C#N)C1` (centres unmarked) [CBK304625]: the “% of control remaining” value came to 83.1087.

With `CC(C)NC(=O)c1cc(C2CCN(C(=O)CCCc3ccc(F)cc3)C2)nc2ccccc12` (centres unmarked) [CBK285921], the “% of control remaining” value is listed as 111.369.

In the case of `O=C(CSc1n[nH]c(=S)s1)NCCc1ccccc1` [CBK023445], the “% of control remaining” value turned out to be 74.8979.

For `O=C(/C=C/c1c[nH]c2ccccc12)c1ccc(C(=O)/C=C/c2c[nH]c3ccccc23)cc1` [CBK264224], the “% of control remaining” value came to 113.523.

With `Cc1ccc(-c2cc(C(=O)NCc3ccc(-c4ccc(C(N)=O)c(C)n4)cc3)no2)cc1` [CBK285644], the “% of control remaining” value is reported as 92.0829.

As to `O=C(CCN1CCN(C(c2ccccc2)c2ccccc2)CC1)c1ccccc1` [CBK074788], the “% of control remaining” value is listed as 98.8082.

In the case of `COCCn1c(CO)nnc1[C@H]1C[C@@H](NC(=O)c2ccc(C)cc2F)C1` [CBK307296], the “% of control remaining” value amounted to 87.2593.

In the case of `Cc1cc(C)n(CC(C)CNC(=O)Cc2csc(-c3ccco3)n2)n1` (centres unmarked) [CBK305628], the “% of control remaining” value is given as 66.7952.

For the molecule `O=C(NCc1cccnc1)C(=O)Nc1ccc(F)cc1F` [CBK269481], the “% of control remaining” value was 80.26.

`CCC(C)NC(=O)Cn1cccc2cc(C3CCCNC3)nc1-2` (centres unmarked) [CBK285087]: the “% of control remaining” value turned out to be 102.515.

For the molecule `CCn1ncc(CN2CCCC(CCC(=O)N3CCN(C)CC3)C2)c1C` (centres unmarked) [CBK306951], the “% of control remaining” value came to 81.0796.

For `O=C(Nc1cccc(CCc2ccccn2)c1)Nc1cccc2ccccc12` [CBK262337], the “% of control remaining” value is 100.865.

Consider `CN(C)c1ccc(-n2ccn(S(=O)(=O)c3ccc(Oc4ccccc4)cc3)c2=O)cc1` [CBK106608], for which the “% of control remaining” value was determined as 118.292.

Take `CN(Cc1ccc(O)cc1)C(=O)NC1CCCc2c1cnn2CCO` (centres unmarked) [CBK305354]: the “% of control remaining” value is listed as 76.6398.

For `O=C(O)C1C2CCC(O2)C1C(=O)Nc1ccc(S(=O)(=O)N2CCc3ccccc32)cc1` (centres unmarked) [CBK268137], the “% of control remaining” value came out at 110.057.

Consider `Cc1cc(C)nc(Nc2nc3ccccc3[nH]2)n1` [CBK263539], for which the “% of control remaining” value amounted to 105.692.

With `O=C(O)c1ccc(C(=O)c2c3c(=O)n(-c4ccccc4C(=O)O)c(=O)c3cc3c(=O)n(-c4ccccc4C(=O)O)c(=O)c23)cc1` [CBK261183], the “% of control remaining” value was 80.8936.

Consider `COCCNC(=O)c1ccc(-c2cccc(Cl)c2Cl)nc1N(C)C` [CBK106057], for which the “% of control remaining” value turned out to be 79.9287.

Turning to `Clc1cccc(Nc2cncc(-c3cccc4ccccc34)n2)c1` [CBK065764], the “% of control remaining” value was found to be 102.74.

For the molecule `COc1ccc2nc(N/C(N)=N/C(=O)COc3ccc(Cl)cc3)nc(C)c2c1` [CBK263924], the “% of control remaining” value turned out to be 51.8719.

Consider `Cc1csc(S(=O)(=O)Cc2nnc(C)n2C2CC2)n1` [CBK305494], for which the “% of control remaining” value is reported as 23.5622.

Consider `COc1cc(NC(=O)N(CCC#N)C2CCCCC2)cc(OC)c1OC` [CBK156380], for which the “% of control remaining” value was determined as 101.046.

For `Cc1cc2ncc3c(n2n1)NC(c1ccc(Cl)cc1Cl)NC3=O` (centres unmarked) [CBK291167], the “% of control remaining” value came to 104.164.

In the case of `Fc1ccc(CN(Cc2ccco2)C2CCN(c3ccc4c(c3)OCO4)CC2)cc1` [CBK286197], the “% of control remaining” value is reported as 85.5748.

As for `COCC(=O)N[C@H]1C[C@H]2C(=O)Nc3ccc(-c4ccsc4)cc3C(=O)N2C1` [CBK289360], the “% of control remaining” value is recorded as 90.8379.

As to `COc1ccc(C(C)C)cc1-c1nccnc1NCc1ccc2c(c1)OCO2` [CBK036683], the “% of control remaining” value is given as 75.583.

Turning to `CCC1CCCCN1C(=O)c1ccc(C(C)(C)C)cc1` (centres unmarked) [CBK076644], the “% of control remaining” value was found to be 87.9858.

`Cn1c(CN2CCN(c3ccc(C#N)cn3)CC2)nnc1C1CC1` [CBK304781]: the “% of control remaining” value is 43.6689.

As for `COc1c(C)cc(S(=O)(=O)NCCN2CCOCC2)c(C)c1C` [CBK269893], the “% of control remaining” value amounted to 87.1101.

As for `Cc1nc(C)n(CCC(=O)NC(C)c2cccs2)n1` (centres unmarked) [CBK282224], the “% of control remaining” value was 90.9869.

Take `CCN(Cc1ccncc1)C(=O)NCc1cnc(C)cn1` [CBK155128]: the “% of control remaining” value is 90.3862.

As for `Cc1cccc(CC(=O)N2CCCC2c2n[nH]cc2-c2ccncc2)c1` (centres unmarked) [CBK283447], the “% of control remaining” value was 102.044.

For the molecule `O=C(c1cn2cc(-c3cccs3)n(CC3CC3)c(=O)c2n1)N1CCCC1` [CBK306756], the “% of control remaining” value was 51.6573.

Take `O=C(NC(C(=O)N/N=C/c1ccccc1O)c1n[nH]c(=O)c2ccccc12)c1ccccc1` (centres unmarked) [CBK261117]: the “% of control remaining” value was found to be 89.4326.

In the case of `Cc1cc(C)n2nc(S(N)(=O)=O)c(C#N)c2n1` [CBK025767], the “% of control remaining” value turned out to be 91.9216.

For `CCCN1CCC(NC(=O)Cn2c(C3CC3)nc3ccccc32)CC1` [CBK304917], the “% of control remaining” value is 49.417.

Take `CN1CCN(C(=O)c2n[nH]c3c2CCCC3)C(Cc2ccc(-c3cccs3)cc2)C1=O` (centres unmarked) [CBK285812]: the “% of control remaining” value is given as 112.891.

As to `CCSc1nnc(-c2cccc(C)c2)n1CC1CCCO1` (centres unmarked) [CBK085413], the “% of control remaining” value is reported as 49.9754.

Turning to `Cc1ccc(S(=O)(=O)Nc2c(C(=O)N3CCN(C)CC3)[nH]c3ccccc23)cc1[N+](=O)[O-]` [CBK050060], the “% of control remaining” value was 108.254.

Consider `O=C(NC1CC1)c1ccc(-n2cccn2)c(C#Cc2ccccn2)c1` [CBK282272], for which the “% of control remaining” value is 97.5992.

Turning to `O=C(Cc1ccc(F)cc1)N1CCn2c(nnc2C2CC2)C1` [CBK283688], the “% of control remaining” value turned out to be 99.5862.

Turning to `CC1(C)COC(=O)N1C1CCN(C(=O)c2ccno2)CC1` [CBK044383], the “% of control remaining” value is given as 92.7431.

As for `CC(C)(C)c1csc(NC(=O)C2CC(=O)N(C3CCCC3)C2)n1` (centres unmarked) [CBK175544], the “% of control remaining” value is listed as 108.4.

Turning to `Cc1ccc(C(=O)NC(Cc2cccs2)c2ccccn2)c(=O)[nH]1` (centres unmarked) [CBK285210], the “% of control remaining” value was found to be 77.7001.

Consider `Cn1nnc2cc(C(=O)N(CCO)c3ccccc3)ccc21` [CBK266522], for which the “% of control remaining” value amounted to 122.587.
